# Experimental data taken from the supplement of paper PMC3334620.
# Whole data set: some 33,000 sequences, median “E-score (-0.5 to 0.5)” near -0.016, cut for the highest 2% near 0.31. The list shows a part of the results.
# Molecular target: Cst6 (UniProt P40535)
# Experiment: PBM E-score (8-mer binding enrichment) (E-score (-0.5 to 0.5)); higher = stronger / more preferred TF binding; most listed sequences are background and not binding sites
# Settings: protein concentration: 200 nM; construct: GST-DNA-binding domain
# Method in brief: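 For each ungapped eight-base word taken together with its reverse complement, the Universal PBM Analysis Suite assigned an E-score. Binding data came from GST-tagged yeast transcription factors, applied at about 100-200 nM, on universal all-10-mer Agilent arrays made double-stranded by primer extension. Fluorescent anti-GST marked bound protein, and scans were normalised with masliner.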
row,Sequence,PBM E-score
1,ATAAGTTA,0.237
2,GGTAATAC,0.111
3,AGCCCTTA,-0.223
4,GTCGTAAC,0.095
5,ACCGATAA,0.102
6,GAAGCGCA,-0.0838
7,GCCTCTAC,-0.211
8,ATGCATAG,-0.0354
9,CGCTAAGA,-0.0575
10,GCGTAAGC,0.0902
11,CCGTGTAG,0.0158
12,CAGCTATA,-0.0669
13,CGCGTGCA,-0.0887
14,CGAATCAA,0.215
15,CTCAGTCC,-0.101
16,CAACCATA,0.2
17,ATGCAACG,0.0792
18,AGGTATGA,0.115
19,ACAACGTC,0.219
20,GGCTTCCA,-0.132
21,ATGATAAC,0.263
22,GATGAGCC,-0.139
23,CACGGGTC,0.141
24,CGCCCCTC,-0.142
25,GGATTCCA,0.133

row,Sequence,PBM E-score
1,GACGGTAC,-0.00492
2,CACCATGA,0.185
3,ATCACATA,0.274
4,CAGATCTA,-0.129
5,CACATTCG,0.0894
6,AGTCCACG,-0.102
7,ATTACCGA,0.122
8,ATCGGTGA,0.229
9,AGATTATC,0.0114
10,AATGCTCA,-0.0154
11,AGCGAAGG,0.00897
12,CCGTTATC,-0.00181
13,CTCCCTAA,-0.16
14,GACGGAGC,-0.0117
15,ACAATCAA,0.149
16,CCCTAGCG,-0.333
17,AACGACAA,0.153
18,AAATGATG,0.332
19,CCGCTTTA,0.0653
20,GCCCGAAA,0.0285
21,ATAGATTA,0.206
22,CATCGCAG,-0.135
23,GCCGTCCA,0.151
24,AGACGCTG,-0.214
25,GGGTGTTA,-0.0706

row,Sequence,PBM E-score
1,ATGACCGC,0.209
2,CTTTCCGA,-0.131
3,CGCGAACA,-0.00246
4,AATTGCTC,-0.0979
5,ACTGATCA,0.136
6,GTACGCAC,-0.1
7,GAGTCCAA,-0.115
8,CCATCGTC,-0.0545
9,CACTGGTA,0.0414
10,GGTACACC,-0.287
11,AATAGAAT,0.133
12,ATCACTAG,0.164
13,AATGTACT,0.0583
14,CTAGTCCC,-0.241
15,CAACAGAC,-0.0113
16,TGACGGCA,0.371
17,CAGAAAAC,0.224
18,ACGGCTCG,0.312
19,GTCAACAC,0.227
20,CAGCTGTA,-0.172
21,CACCGGTA,0.018
22,TATTCGAA,-0.0158
23,CTTACATC,0.365
24,TACCGTGA,0.0115
25,GAGACGGA,0.0715

row,Sequence,PBM E-score
1,ACTGTCAA,0.0674
2,CTTGAGTC,-0.172
3,ATAGAGCG,-0.122
4,ATGGTGCA,0.0455
5,CTGACTTA,0.0619
6,ACTTCTCT,-0.0203
7,AATTGCCC,-0.055
8,AGCAGGCT,-0.279
9,CCAGAACG,0.0166
10,ACCGGTCA,-0.0152
11,ATCGCCCG,-0.195
12,GTCAGGCA,-0.0378
13,ACAAAGAG,-0.179
14,CAGTCGGC,-0.116
15,ATCTACGG,0.0766
16,CGGATACG,0.0365
17,CGCGGCAA,0.134
18,CCTCGTAG,0.0429
19,GTACTTGA,-0.168
20,ACTACATG,0.151
21,ATTTCATA,0.192
22,AGTTCGTG,-0.0346
23,CGTTGCTA,-0.00267
24,CTTAACGA,0.0413
25,CGTGTTGA,0.0872

row,Sequence,PBM E-score
1,AGCTATCG,-0.106
2,CCAGCCAA,-0.0768
3,AGCTCACT,0.0289
4,AGAACACA,0.0117
5,AGGTTAGC,-0.207
6,CTATGTGA,0.0939
7,CGAACATA,0.161
8,CAGTCAAG,-0.0974
9,GGATCCCA,-0.0683
10,GCACCTAC,-0.171
11,TAGACCAA,-0.0245
12,AGACATAG,-0.00262
13,TCAATGAA,0.0774
14,ATTGCGCC,0.0746
15,AGCGGCTA,0.131
16,GGGGGGAC,-0.445
17,CCGCTGAG,-0.209
18,ACTTGGAC,-0.0298
19,ACCTTCTC,-0.161
20,ACCTGCCG,-0.111
21,CAGTGATG,0.247
22,AAAAAATC,0.23
23,AAGGTCGG,-0.139
24,AGCTTCTA,-0.186
25,AATAAGTG,0.0718

row,Sequence,PBM E-score
1,ACACATCT,0.024
2,CCCACTAA,-0.119
3,CTATTACC,-0.111
4,ACGGGTAC,-0.16
5,AAGTAGAG,0.018
6,GGGCTGAC,-0.0231
7,TAAAATGA,0.268
8,CCAGTGGC,-0.175
9,CGTTCGAC,-0.0785
10,ACCGACTC,-0.2
11,AGAAATGA,0.231
12,TACCAGAA,0.0986
13,ATGACCCC,-0.177
14,ATCGTCTC,-0.0844
15,ACTACTAC,-0.0814
16,TGCATGCA,0.00464
17,AGCTCGTA,-0.098
18,GCTTTCCC,-0.145
19,CTTGTACC,-0.00851
20,CGGGTGTA,-0.192
21,TACAGCGA,-0.116
22,AAATGGCT,0.00259
23,ATTCAATG,0.134
24,AAGGTTAC,0.072
25,GCCCGGCA,-0.251

row,Sequence,PBM E-score
1,CTCAACGA,-0.065
2,ATGACGCA,0.485
3,ATGGGAGG,-0.215
4,CGTGGCAC,0.104
5,CAGAGTCC,-0.0312
6,CCCAGCTC,-0.327
7,GAATCCTC,-0.238
8,CCCTAGCC,-0.175
9,CTTTAGGC,-0.111
10,ACGTACAA,0.168
11,AGCGGTCG,-0.219
12,AAACTTGC,0.174
13,ATGTTCTA,-0.0863
14,ACCTCCCA,-0.36
15,ATACGTCA,0.494
16,ATCGGCCA,-0.132
17,ACCAGCCA,-0.177
18,CACGTACC,-0.0025
19,GACGACGC,0.074
20,CGTGTCAC,0.2
21,CCTTATTA,0.19
22,AAGGCATT,0.199
